In all, about 150,000 compounds went through this assay and about 540 (0.36%) showed an effect of 50% or more. The list shows a part of the results.
test system: Plasmodium falciparum; test: Primary screen in NF54 nanoGlo assay, in single point, at 2uM, 72h; a lower Z score goes with more inhibition; type: functional, Erythrocyte; details: timepoint 72 hour

| Structure (SMILES) | % Inhibition [%] | Z score |
| --- | --- | --- |
| CC(=O)N[C@@H](C(=O)NCc1ccc(Cl)cc1)C(=O)Nc1ccc(C(C)C)cc1 | 4 | -0.57 |
| Cn1cccc1C(=O)N1CCOc2ccc(N3CCOCC3)cc2C1 | 4 | -0.77 |
| C#CCOc1ccc(N(C)CCCC(=O)NC(=O)NC)cc1 | -9 | 1.18 |
| CC[C@H](C)CNC(=O)c1n[nH]c2c1CN(C(=O)c1ccc3c(c1)OCO3)CC2 | -8 | 1.21 |
| COc1nn(C)cc1C(=O)N1CCN(CC(=O)c2ccco2)CC1 | -12 | 2.29 |
| O[C@H](COc1ccc(F)cc1)Cn1ccnc1-c1cccnc1 | -4 | 0.38 |
| O=C(c1ccccc1)N1CCN(Cc2ccc(-n3ccnc3)cc2)CC1 | -3 | 0.33 |
| COc1cccc([C@H](CN2CCN(S(=O)(=O)c3ccc(C)c(F)c3)CC2)OCc2cccc(Cl)c2)c1 | 0 | 0.05 |
| Cc1nsc(NCCN2CC3CCC(C2)O3)c1C#N | -5 | 0.8 |
| COc1ccc2c(c1)c(=O)ncn2C[C@@H](O)c1ccccc1 | -6 | 0.74 |
| CCCc1ncncc1-c1nc(C2CC2)nn1CCC | 6 | -0.91 |
| O=C(c1ccc2ccccc2n1)N1CCC2(CC1)C[C@@H](Cc1cccc(F)c1)CCO2 | -4 | 0.56 |
| O=C(c1ccc2[nH]cnc2c1)N1CCN(c2cc3c(nn2)CCCC3)CC1 | -21 | 3.56 |
| CCN(CCCN1CCCC1)c1nccc(C)n1 | -13 | 1.88 |
| CC(C)n1nc2c(S(=O)(=O)N3CCCCC3)cccn2c1=O | 1 | -0.13 |
| O=C(N[C@H]1CCN(c2ccc(C(F)(F)F)cn2)C1)c1ccc(Cl)c(Cl)c1 | -5 | 1 |
| CC(=O)c1ccc(S(=O)(=O)N2CCC3(CC2)N=C(c2ccccc2)C(=O)N3)cc1 | -16 | 2.12 |
| COCc1cc(N[C@@H](Cc2ccc(O)cc2)C(N)=O)ncn1 | -5 | 0.91 |
| O=C(O)[C@@H]1CN(C(=O)c2ccc(Cl)o2)C[C@@H]1c1ccccc1 | -13 | 1.76 |
| COC(=O)N1CCCC[C@H]1C(=O)N1CCC2(CC1)c1nc[nH]c1CCN2C | -17 | 2.2 |
| Fc1ccc(C2=CCN(c3ccc4nnc(C(F)(F)F)n4n3)C2)cc1 | 5 | -0.54 |
| O=C(c1ncccc1O)N1CCC(c2nccn2Cc2ccccc2)CC1 | -3 | 0.48 |

| Structure (SMILES) | % Inhibition [%] | Z score |
| --- | --- | --- |
| COc1ccc(NC(=O)c2cc(C)nc3c2c(C)nn3-c2cccc(Cl)c2C)cc1 | -1 | 0.14 |
| Cc1c(C(=O)NC2(C#N)CC2)nnn1-c1ccc(Cl)cc1F | 3 | -0.48 |
| Cn1cc(S(=O)(=O)N2CCC(CCC(=O)NC[C@H]3CCCO3)CC2)cn1 | 5 | -0.87 |
| Cc1cccc(NS(=O)(=O)[C@H]2CCS(=O)(=O)C2)c1 | -4 | 0.54 |
| COc1ccccc1OCC(=O)Nc1cc2c(cc1C(=O)O)OCCCO2 | 14 | -2.29 |
| O=C(CCN1CCCCC1)c1cc2ccccc2o1 | -7 | 0.95 |
| CCOC(=O)[C@H]1CCCN(C(=O)NCc2ccc(NC(C)=O)cc2)C1 | -4 | 0.5 |
| O=C(Nc1ccc(-c2ccccn2)cn1)c1csc(Cc2ccc(F)cc2)n1 | -7 | 0.97 |
| CCN(C[C@H]1COc2ccccc2O1)C(=O)Cn1cnc(C#N)n1 | -10 | 1.63 |
| Cc1nc([C@H](NC(=O)c2cncc(O)c2)c2ccc(Cl)cc2)no1 | -4 | 0.54 |
| COc1cccc(CC2=NO[C@H](C(=O)NCc3ccon3)C2)c1 | 6 | -0.78 |
| COC(=O)C1CCCCC1NC(=O)c1ccncc1F (stereo not given) | -10 | 1.02 |
| O=C(NCCn1ccccc1=O)N[C@H]1CCCC12CCCCC2 | -6 | 0.72 |
| CN1CCc2cc(-c3ncccn3)ccc21 | 2 | -0.3 |
| CN1CC[C@@]2(CCC1=O)CN(Cc1cccc(O)c1)CCN2C | -17 | 1.68 |
| CC(C)(CNC(=O)c1ccncc1)CNC(=O)c1ccncc1 | -3 | 0.61 |
| O=C(NCCc1ccc[nH]1)[C@H]1CC[C@H](Nc2ncccn2)CC1 | -2 | 0.3 |
| CCc1ccc(-c2nn(CC)c(=O)c3c2CCCC3)cc1S(=O)(=O)N1CCCC[C@@H]1C | -3 | 0.39 |
| COc1ccc(CNC(=O)c2cc(-c3sc(-c4cccc(C)c4)nc3C)n[nH]2)cc1 | -7 | 0.93 |
| O=C(c1nccc2ccccc12)N1CC(n2nccn2)C1 | 6 | -0.74 |
| Cc1noc(C2CN(C(=O)c3nc4ccccc4s3)C2)n1 | -4 | 0.66 |
| Cc1nc(NC(=O)c2ccccc2NC(=O)c2ccco2)sc1C | -12 | 2.36 |

| Structure (SMILES) | % Inhibition [%] | Z score |
| --- | --- | --- |
| O=C(NC[C@H]1CCCN1c1ccccn1)c1cccc(Cl)c1 | -13 | 2.45 |
| CN(C)C(=O)[C@]12CN(C(=O)c3ccccc3)C[C@H]1CN(S(=O)(=O)c1ccc(F)cc1)C2 | -5 | 0.63 |
| C[C@H](NC(=O)N1CCCC12CCN(C)CC2)c1cccc(O)c1 | -13 | 2.41 |
| O=C(C1CC1c1cccnc1)N(CCN1CCCC1)c1ccccc1 (stereo not given) | 2 | -0.18 |
| OCC1(CCCc2ccccc2)CCN(C2CCOCC2)CC1 | -10 | 1.9 |
| COCC(C)(C)C(=O)Nc1ccn(CC(F)F)n1 | 7 | -0.9 |
| Clc1ccc(COc2cccc(CNCc3ccco3)c2)c(Cl)c1 | -29 | 3.45 |
| Cc1cccc(CC(=O)Nc2cc(C)nn2-c2ccc(C)nn2)c1 | -11 | 0.9 |
| O=C(c1cc2ccccn2c1)N1CCOC[C@@]12CCOC2 | 13 | -1.19 |
| CC(CCC1CCCO1)NC(=O)c1ccc(OCC(F)F)nc1 (stereo not given) | -7 | 0.87 |
| Cc1noc(C)c1S(=O)(=O)NC1(C(=O)Nc2ccsc2)CCCC1 | -8 | 1.08 |
| C[C@@]1(C(=O)NCCCn2cccn2)CCCO1 | -7 | 0.85 |
| O=S(=O)(c1ccccc1Br)N1C2CCC1CC(=C1CC1)C2 | 8 | -1.03 |
| CCN1CC[C@H]2OCCN(Cc3cnc(N(C)C)c4ccccc34)[C@H]2C1 | -6 | 1.03 |
| CCc1nc(CNS(=O)(=O)CC2CCCC2)cs1 | -6 | 1.28 |
| Cc1cccc(C(=O)N(Cc2cccs2)c2cccc(Cl)c2)c1 | 15 | -1.75 |
| CCN1CC(=O)N([C@H]2CN(C)Cc3ccccc32)C1=O | -14 | 1.44 |
| Cn1nccc1C(=O)N1CCC[C@H](c2nc(-c3ccccc3)no2)CCNC(=O)CC1 | 2 | -0.46 |
| O=C(CN1CCC(N2CC(=O)N(CC(F)(F)F)C2=O)CC1)Nc1nccs1 | -4 | 0.46 |
| c1ccc(-c2ncn(Cc3noc([C@@H]4CCCO4)n3)c2-c2ccsc2)cc1 | -19 | 2.3 |
| Cc1ccc(NS(=O)(=O)c2ccc(-c3cc(C(F)(F)F)n[nH]3)s2)c(Cl)c1 | -3 | 0.65 |
| CCOC[C@@H]1CC(F)(F)CN1C1CN(C(=O)c2cc(C)n[nH]2)C1 | -18 | 2.06 |

| Structure (SMILES) | % Inhibition [%] | Z score |
| --- | --- | --- |
| Cc1ncsc1C(=O)N[C@H]1CC(=O)N(CC(C)(C)C)C1 | 3 | -0.47 |
| O=C(Nc1cccc2ccccc12)c1ccc2nsnc2c1 | -8 | 1.58 |
| Cc1nnc2ccc(-c3cccc(NS(=O)(=O)c4ccc5c(c4)OCCO5)c3)nn12 | 6 | -0.83 |
| Cc1cc(C)c(C(=O)N2CCC[C@H](C(=O)NCc3cccnc3)C2)[nH]1 | -5 | 0.63 |
| COc1ccc(OCC(=O)N2CCC[C@H]2c2ccc3c(c2)OCCCO3)cc1 | 2 | -0.3 |
| CCc1nc(C(=O)Nc2ccccc2N(C)C)c[nH]1 | 21 | -2.32 |
| CCN(Cc1ccccn1)C(=O)NCc1ccc(C2CC2)cc1F | -7 | 0.94 |
| O=C(NC1CCC(Oc2cnccn2)CC1)c1ccon1 (stereo not given) | -7 | 0.66 |
| CCC(CC)N1CCN(S(C)(=O)=O)CC1 | -9 | 0.78 |
| Cc1nonc1CN[C@@H](Cc1ccccc1)C1CCCCC1 | 13 | -2.47 |
| COc1ccc(OC(C)CNC(=O)C2CCCC(F)(F)C2)cc1 (stereo not given) | -10 | 1.12 |
| CN(C)S(=O)(=O)NCCn1nc(-c2ccccn2)n(C)c1=O | -11 | 2.04 |
| CCOC(=O)C1CCN(C(=O)c2cnc(-c3cccc(C)c3)nc2N(C)c2ccccc2)CC1 | 3 | -0.48 |
| COC1(C)CC(N(C)C(=O)[C@@H]2Cc3cncn3C(=O)N2)C1(C)C (stereo not given in full) | -3 | 0.52 |
| N#Cc1ccc(NC(=O)c2cccc(-c3nc(-c4ccccc4)no3)c2)cc1 | -5 | 0.86 |
| Cc1cn([C@@H](C)c2ccccc2)nc1NC(=O)NCC1CCS(=O)(=O)CC1 | -5 | 0.72 |
| O=C1NCC2C1CCCN2C(=O)Nc1cccc(C#Cc2ccccc2)c1 (stereo not given) | -11 | 1.42 |
| O=C(c1ccc(F)cc1Cl)N1CC(Nc2cnccn2)C1 | -8 | 0.95 |
| Cc1ccccc1C(=O)N[C@@H]1CCCC[C@H]1NC(=O)C1CCN(C(=O)c2cc(C(F)(F)F)cc(C(F)(F)F)c2)CC1 | -5 | 0.63 |
